Assay results taken from the supplement of paper PMC9151546.
Many values rest on one well or one pass, so single values are uncertain.

Columns and labels:
CHO-K1 [1] = test: micronucleus frequency (% of nucleated events); higher = more micronuclei (genotoxic)
CHO-K1 [2] = test: relative survival (nuclei to bead ratio vs DMSO control) (% of vehicle control); higher = more surviving cells
Method: (§1)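 Flow-cytometric in vitro micronucleus assay (Litron MicroFlow) in CHO-K1 cells in 96-well plates, 19 concentrations (4.5-200 µM, n=1 per concentration). Without S9, cells were exposed for 24 h and sampled at 48 h. With Aroclor 1254-induced rat liver S9, cells were exposed for 3-4 h and sampled at 27-28 h. Read-outs are %MN and %hypodiploid nuclei relative to nucleated events, and relative survival as the nuclei-to-bead ratio versus the 1% DMSO vehicle control (x100).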

CHO-K1 [3] = test: hypodiploid nuclei frequency (% of nucleated events); higher = more hypodiploid events (aneugenic)
Method: as §1

[4] = concentration: 4.48 (µM), S9 metabolic activation: with S9, exposure time: 3-4 hours
[5] = concentration: 4.48 (µM), S9 metabolic activation: without S9, exposure time: 24 hours
[6] = concentration: 5.6 (µM), S9 metabolic activation: with S9, exposure time: 3-4 hours
[7] = concentration: 5.6 (µM), S9 metabolic activation: without S9, exposure time: 24 hours
[8] = concentration: 7 (µM), S9 metabolic activation: with S9, exposure time: 3-4 hours
[9] = concentration: 7 (µM), S9 metabolic activation: without S9, exposure time: 24 hours
[10] = concentration: 8.75 (µM), S9 metabolic activation: with S9, exposure time: 3-4 hours
[11] = concentration: 8.75 (µM), S9 metabolic activation: without S9, exposure time: 24 hours
[12] = concentration: 10.9 (µM), S9 metabolic activation: with S9, exposure time: 3-4 hours
[13] = concentration: 10.9 (µM), S9 metabolic activation: without S9, exposure time: 24 hours
[14] = concentration: 13.7 (µM), S9 metabolic activation: with S9, exposure time: 3-4 hours
[15] = concentration: 13.7 (µM), S9 metabolic activation: without S9, exposure time: 24 hours
[16] = concentration: 17.1 (µM), S9 metabolic activation: with S9, exposure time: 3-4 hours
[17] = concentration: 17.1 (µM), S9 metabolic activation: without S9, exposure time: 24 hours
[18] = concentration: 21.4 (µM), S9 metabolic activation: with S9, exposure time: 3-4 hours
[19] = concentration: 21.4 (µM), S9 metabolic activation: without S9, exposure time: 24 hours
[20] = concentration: 26.7 (µM), S9 metabolic activation: with S9, exposure time: 3-4 hours
[21] = concentration: 26.7 (µM), S9 metabolic activation: without S9, exposure time: 24 hours
[22] = concentration: 33.4 (µM), S9 metabolic activation: with S9, exposure time: 3-4 hours
[23] = concentration: 33.4 (µM), S9 metabolic activation: without S9, exposure time: 24 hours
[24] = concentration: 41.7 (µM), S9 metabolic activation: with S9, exposure time: 3-4 hours
[25] = concentration: 41.7 (µM), S9 metabolic activation: without S9, exposure time: 24 hours
[26] = concentration: 52.2 (µM), S9 metabolic activation: with S9, exposure time: 3-4 hours
[27] = concentration: 52.2 (µM), S9 metabolic activation: without S9, exposure time: 24 hours
[28] = concentration: 65.2 (µM), S9 metabolic activation: with S9, exposure time: 3-4 hours
[29] = concentration: 65.2 (µM), S9 metabolic activation: without S9, exposure time: 24 hours
[30] = concentration: 81.5 (µM), S9 metabolic activation: with S9, exposure time: 3-4 hours
[31] = concentration: 81.5 (µM), S9 metabolic activation: without S9, exposure time: 24 hours
[32] = concentration: 102 (µM), S9 metabolic activation: with S9, exposure time: 3-4 hours
[33] = concentration: 102 (µM), S9 metabolic activation: without S9, exposure time: 24 hours
[34] = concentration: 127 (µM), S9 metabolic activation: with S9, exposure time: 3-4 hours
[35] = concentration: 127 (µM), S9 metabolic activation: without S9, exposure time: 24 hours
[36] = concentration: 159 (µM), S9 metabolic activation: with S9, exposure time: 3-4 hours
[37] = concentration: 159 (µM), S9 metabolic activation: without S9, exposure time: 24 hours
[38] = concentration: 199 (µM), S9 metabolic activation: with S9, exposure time: 3-4 hours
[39] = concentration: 199 (µM), S9 metabolic activation: without S9, exposure time: 24 hours
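Wherever hypodiploid nuclei frequency (% of nucleated events) is given: hypodiploid nuclei gated on a flow cytometer with 488 nm excitation after SYTOX Green staining, cultures at 37 °C, positive controls vinblastine without S9 and cyclophosphamide with S9.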
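Wherever micronucleus frequency (% of nucleated events) is given: cells lysed with nuclei stained by SYTOX Green, then micronucleus-gated events counted against nucleated events by flow cytometry with 488 nm excitation.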
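Wherever relative survival (nuclei to bead ratio vs DMSO control) is given: Lysed-cell nuclei stained with SYTOX Green and counted against counting beads by flow cytometry at 488 nm excitation, with vinblastine (no S9) and cyclophosphamide (plus S9) as positive controls.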

## Clc1ccc(Cl)c(Cl)c1 [1,2,4-Trichlorobenzene]
CHO-K1 [1]; [4]
  micronucleus frequency: 0.96%
CHO-K1 [1]; [5]
  micronucleus frequency: 1.62%
CHO-K1 [1]; [6]
  micronucleus frequency: 0.8%
CHO-K1 [1]; [7]
  micronucleus frequency: 1.7%
CHO-K1 [1]; [8]
  micronucleus frequency: 1.22%
CHO-K1 [1]; [9]
  micronucleus frequency: 1.52%
CHO-K1 [1]; [10]
  micronucleus frequency: 0.84%
CHO-K1 [1]; [11]
  micronucleus frequency: 1.68%
CHO-K1 [1]; [12]
  micronucleus frequency: 0.87%
CHO-K1 [1]; [13]
  micronucleus frequency: 1.14%
CHO-K1 [1]; [14]
  micronucleus frequency: 1%
CHO-K1 [1]; [15]
  micronucleus frequency: 1.28%
CHO-K1 [1]; [16]
  micronucleus frequency: 1.32%
CHO-K1 [1]; [17]
  micronucleus frequency: 1.68%
CHO-K1 [1]; [18]
  micronucleus frequency: 1.3%
CHO-K1 [1]; [19]
  micronucleus frequency: 1.78%
CHO-K1 [1]; [20]
  micronucleus frequency: 0.94%
CHO-K1 [1]; [21]
  micronucleus frequency: 0.94%
CHO-K1 [1]; [22]
  micronucleus frequency: 1.1%
CHO-K1 [1]; [23]
  micronucleus frequency: 1.96%
CHO-K1 [1]; [24]
  micronucleus frequency: 1.42%
CHO-K1 [1]; [25]
  micronucleus frequency: 1.84%
CHO-K1 [1]; [26]
  micronucleus frequency: 1.66%
CHO-K1 [1]; [27]
  micronucleus frequency: 1.76%
CHO-K1 [1]; [28]
  micronucleus frequency: 1.2%
CHO-K1 [1]; [29]
  micronucleus frequency: 2%
CHO-K1 [1]; [30]
  micronucleus frequency: 1.35%
CHO-K1 [1]; [31]
  micronucleus frequency: 1.6%
CHO-K1 [1]; [32]
  micronucleus frequency: 1.2%
CHO-K1 [1]; [33]
  micronucleus frequency: 1.64%
CHO-K1 [1]; [34]
  micronucleus frequency: 1.22%
CHO-K1 [1]; [35]
  micronucleus frequency: 2.02%
CHO-K1 [1]; [36]
  micronucleus frequency: 1.26%
CHO-K1 [1]; [37]
  micronucleus frequency: 2.06%
CHO-K1 [1]; [38]
  micronucleus frequency: 1.26%
CHO-K1 [1]; [39]
  micronucleus frequency: 2.56%
CHO-K1 [2]; [4]
  relative survival: 110
CHO-K1 [2]; [5]
  relative survival: 112
CHO-K1 [2]; [6]
  relative survival: 116
CHO-K1 [2]; [7]
  relative survival: 119
CHO-K1 [2]; [8]
  relative survival: 102
CHO-K1 [2]; [9]
  relative survival: 120
CHO-K1 [2]; [10]
  relative survival: 91
CHO-K1 [2]; [11]
  relative survival: 113
CHO-K1 [2]; [12]
  relative survival: 78.5
CHO-K1 [2]; [13]
  relative survival: 148
CHO-K1 [2]; [14]
  relative survival: 118
CHO-K1 [2]; [15]
  relative survival: 114
CHO-K1 [2]; [16]
  relative survival: 91.4
CHO-K1 [2]; [17]
  relative survival: 118
CHO-K1 [2]; [18]
  relative survival: 95.8
CHO-K1 [2]; [19]
  relative survival: 112
CHO-K1 [2]; [20]
  relative survival: 108
CHO-K1 [2]; [21]
  relative survival: 96.2
CHO-K1 [2]; [22]
  relative survival: 91.7
CHO-K1 [2]; [23]
  relative survival: 103
CHO-K1 [2]; [24]
  relative survival: 84.8
CHO-K1 [2]; [25]
  relative survival: 84.4
CHO-K1 [2]; [26]
  relative survival: 80.8
CHO-K1 [2]; [27]
  relative survival: 79
CHO-K1 [2]; [28]
  relative survival: 102
CHO-K1 [2]; [29]
  relative survival: 91.6
CHO-K1 [2]; [30]
  relative survival: 74.1
CHO-K1 [2]; [31]
  relative survival: 81.6
CHO-K1 [2]; [32]
  relative survival: 78.1
CHO-K1 [2]; [33]
  relative survival: 80.1
CHO-K1 [2]; [34]
  relative survival: 78.4
CHO-K1 [2]; [35]
  relative survival: 75.2
CHO-K1 [2]; [36]
  relative survival: 80.7
CHO-K1 [2]; [37]
  relative survival: 85.8
CHO-K1 [2]; [38]
  relative survival: 96
CHO-K1 [2]; [39]
  relative survival: 64.1
CHO-K1 [3]; [4]
  hypodiploid nuclei frequency: 0.2%
CHO-K1 [3]; [5]
  hypodiploid nuclei frequency: 0.44%
CHO-K1 [3]; [6]
  hypodiploid nuclei frequency: 0.24%
CHO-K1 [3]; [7]
  hypodiploid nuclei frequency: 0.6%
CHO-K1 [3]; [8]
  hypodiploid nuclei frequency: 0.32%
CHO-K1 [3]; [9]
  hypodiploid nuclei frequency: 0.78%
CHO-K1 [3]; [10]
  hypodiploid nuclei frequency: 0.12%
CHO-K1 [3]; [11]
  hypodiploid nuclei frequency: 0.52%
CHO-K1 [3]; [12]
  hypodiploid nuclei frequency: 0.2%
CHO-K1 [3]; [13]
  hypodiploid nuclei frequency: 0.54%
CHO-K1 [3]; [14]
  hypodiploid nuclei frequency: 0.18%
CHO-K1 [3]; [15]
  hypodiploid nuclei frequency: 0.5%
CHO-K1 [3]; [16]
  hypodiploid nuclei frequency: 0.14%
CHO-K1 [3]; [17]
  hypodiploid nuclei frequency: 0.56%
CHO-K1 [3]; [18]
  hypodiploid nuclei frequency: 0.26%
CHO-K1 [3]; [19]
  hypodiploid nuclei frequency: 0.7%
CHO-K1 [3]; [20]
  hypodiploid nuclei frequency: 0.3%
CHO-K1 [3]; [21]
  hypodiploid nuclei frequency: 0.58%
CHO-K1 [3]; [22]
  hypodiploid nuclei frequency: 0.24%
CHO-K1 [3]; [23]
  hypodiploid nuclei frequency: 0.56%
CHO-K1 [3]; [24]
  hypodiploid nuclei frequency: 0.14%
CHO-K1 [3]; [25]
  hypodiploid nuclei frequency: 0.74%
CHO-K1 [3]; [26]
  hypodiploid nuclei frequency: 0.18%
CHO-K1 [3]; [27]
  hypodiploid nuclei frequency: 0.76%
CHO-K1 [3]; [28]
  hypodiploid nuclei frequency: 0.24%
CHO-K1 [3]; [29]
  hypodiploid nuclei frequency: 1.02%
CHO-K1 [3]; [30]
  hypodiploid nuclei frequency: 0.1%
CHO-K1 [3]; [31]
  hypodiploid nuclei frequency: 0.68%
CHO-K1 [3]; [32]
  hypodiploid nuclei frequency: 0.32%
CHO-K1 [3]; [33]
  hypodiploid nuclei frequency: 0.76%
CHO-K1 [3]; [34]
  hypodiploid nuclei frequency: 0.24%
CHO-K1 [3]; [35]
  hypodiploid nuclei frequency: 0.9%
CHO-K1 [3]; [36]
  hypodiploid nuclei frequency: 0.24%
CHO-K1 [3]; [37]
  hypodiploid nuclei frequency: 1.26%
CHO-K1 [3]; [38]
  hypodiploid nuclei frequency: 0.16%
CHO-K1 [3]; [39]
  hypodiploid nuclei frequency: 1.4%
